Results as given in PubChem BioAssay AID1347165 (National Center for Advancing Translational Sciences (NCATS), 2019).
Out of some 220,000 compounds screened, about 5,700 (2.6%) were called active. The inconclusive results got no clear call from the source; some entries with a clear call stand among them for comparison. Calls follow the shape of the dose curve; as a rule, active = well fitted inhibition curve with a large enough effect; inconclusive = small, poorly fitted or top-dose-only effect; inactive = no such curve, though single readings can be large or run the other way. A potency beside an inconclusive call is a rough fit, not a confirmed value.

Target: Lysine-specific demethylase 5B (Homo sapiens) (UniProt Q9UGL1)
Chain of UniProt Q9UGL1 (Q9UGL1 whole entry, looked up): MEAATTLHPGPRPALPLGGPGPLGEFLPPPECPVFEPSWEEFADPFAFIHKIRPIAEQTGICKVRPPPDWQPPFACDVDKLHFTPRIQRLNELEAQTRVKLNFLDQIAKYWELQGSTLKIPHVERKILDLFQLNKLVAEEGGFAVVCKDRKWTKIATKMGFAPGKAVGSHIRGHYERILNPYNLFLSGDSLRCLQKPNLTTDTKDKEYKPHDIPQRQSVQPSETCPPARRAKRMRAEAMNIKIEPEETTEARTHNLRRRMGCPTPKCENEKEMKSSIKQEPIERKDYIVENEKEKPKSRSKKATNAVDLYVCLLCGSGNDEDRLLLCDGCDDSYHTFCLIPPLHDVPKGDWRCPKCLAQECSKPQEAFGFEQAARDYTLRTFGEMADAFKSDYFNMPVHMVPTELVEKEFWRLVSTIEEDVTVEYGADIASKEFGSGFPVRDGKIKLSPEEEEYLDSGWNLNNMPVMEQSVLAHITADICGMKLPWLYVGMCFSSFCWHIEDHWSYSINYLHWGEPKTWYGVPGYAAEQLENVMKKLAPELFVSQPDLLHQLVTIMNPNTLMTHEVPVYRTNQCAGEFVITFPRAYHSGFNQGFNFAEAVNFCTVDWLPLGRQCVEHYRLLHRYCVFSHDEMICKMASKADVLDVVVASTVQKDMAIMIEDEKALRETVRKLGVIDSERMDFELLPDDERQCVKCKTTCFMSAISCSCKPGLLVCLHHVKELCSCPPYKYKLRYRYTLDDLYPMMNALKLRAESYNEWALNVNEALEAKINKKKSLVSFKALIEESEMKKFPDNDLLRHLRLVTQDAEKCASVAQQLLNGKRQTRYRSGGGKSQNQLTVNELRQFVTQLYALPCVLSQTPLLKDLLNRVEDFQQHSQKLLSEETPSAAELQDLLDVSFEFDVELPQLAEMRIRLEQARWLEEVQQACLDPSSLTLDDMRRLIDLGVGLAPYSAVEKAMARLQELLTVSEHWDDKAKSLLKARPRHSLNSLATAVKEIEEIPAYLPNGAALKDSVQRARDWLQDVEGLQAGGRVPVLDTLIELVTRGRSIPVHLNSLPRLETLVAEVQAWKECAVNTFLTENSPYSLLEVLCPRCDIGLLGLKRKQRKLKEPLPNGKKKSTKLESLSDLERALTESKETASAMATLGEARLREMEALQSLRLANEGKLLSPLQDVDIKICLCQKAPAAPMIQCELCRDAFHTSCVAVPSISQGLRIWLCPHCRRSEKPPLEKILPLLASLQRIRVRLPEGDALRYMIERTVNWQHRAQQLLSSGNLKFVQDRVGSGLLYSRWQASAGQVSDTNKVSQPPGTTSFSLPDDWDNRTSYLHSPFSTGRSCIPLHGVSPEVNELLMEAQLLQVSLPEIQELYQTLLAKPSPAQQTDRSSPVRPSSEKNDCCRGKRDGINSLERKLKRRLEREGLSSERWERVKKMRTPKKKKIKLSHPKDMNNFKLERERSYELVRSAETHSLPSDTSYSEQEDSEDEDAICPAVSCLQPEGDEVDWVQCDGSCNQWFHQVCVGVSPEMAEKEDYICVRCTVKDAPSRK
Experiment: Primary screen for KDM5B Histone Demethylases FDH-coupled qHTS; also: nearly all actives have a fitted effect of over 70% in size
Details: FDH-coupled NADH fluorescence (FDH is formaldehyde dehydrogenase); series mostly up to 57.7 µM
Outline: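 Compound dilutions met 200 nM (final) KDM5BΔAP for 10 min at room temperature before substrate addition. The substrate mix held 12.5 µM H3K4me3 with cofactors 25 µM α-ketoglutarate and 50 µM Fe²⁺. NADH signal gain over 30 min defined activity.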
Potency is read from the fitted curve at half-maximal effect; tags tell the direction and shape of the fitted curve.

Structure (SMILES)	Potency
O=C(COc1ncnc2ccc(Br)cc12)Nc1ccccc1	inactive
O=C1NCc2ccccc2CC12CCCN2Cc1cc(O)cc(O)c1 (configuration not stated)	inconclusive: 79.4 µM [inhibitor, partial curve, poor fit]
COC1CCC12CCN(Cc1ccc(C)o1)CC2 (configuration not stated)	inconclusive: 14.1 µM [inhibitor, partial curve, poor fit]
CN(Cc1cccnc1)c1ccc2ncc(Nc3ccc(F)cc3)n2n1	inconclusive: 44.7 µM [inhibitor, single point]
N#Cc1c[nH]n2c(NC3CCCCC3)c(-c3ccc(F)cc3)nc12	inconclusive: 10 µM [inhibitor, partial curve, poor fit]
COc1cc2[nH]c(=O)n(CCC(=O)N3CCN(Cc4ccc5c(c4)OCO5)CC3)c(=O)c2cc1OC	inconclusive: 20 µM [inhibitor, single point]
CN1CCN(C(=O)c2cc(-c3ccc(F)cc3)nc3ccccc23)CC1	inconclusive: 35.5 µM [inhibitor, single point]
COc1ccccc1CNC(=O)C1(c2cccs2)CCOCC1	inactive
COc1ccc(-c2nc3nc(C)cc(C)n3c2Nc2c(C)cccc2C)cc1	inconclusive: 35.5 µM [inhibitor, single point]
Cc1cc(N2C(=O)CCS2(=O)=O)ccc1S(=O)(=O)NC(C)C	inactive
Cc1ccc(S(=O)(=O)N[C@H]2CO[C@H]3[C@@H]2OC[C@H]3OCC(N)=O)cc1	inactive
CN(C)c1ccc(C(=O)N[C@H]2C[C@H]3C(=O)NC[C@@H](CCC(=O)NCc4cccs4)N3C2)cc1	inconclusive: 22.4 µM [inhibitor, single point]
CCOc1ccc(-c2cn3c(n2)sc2cc(C(=O)NCCCN4CCCCCC4)ccc23)cc1	inconclusive: 25.1 µM [inhibitor, partial curve, poor fit]
CCNc1ncc(-c2nc3cc(S(=O)(=O)NC(C)C)ccc3n2C(C)C)cn1	active: 28.2 µM
C=C(C)CNc1ccc(C(=O)NCCC2CCCCN2C)cn1 (configuration not stated)	inconclusive: 39.8 µM [inhibitor, single point]
Cc1cc(NC(=O)C2CCN(S(=O)(=O)c3c(C)noc3C)CC2)ccc1Br	inconclusive: 22.4 µM [inhibitor, single point]
CCOCCCNC(=O)NCC1Cn2cccc2CN1Cc1ccccc1 (configuration not stated)	active: 28.2 µM
CN(Cc1ccccc1F)C(=O)CN1CCN(c2oc(-c3ccco3)nc2C#N)CC1	inconclusive: 22.4 µM [inhibitor, partial curve, poor fit]
Cc1cc(C)cc(Nc2cc(C(=O)NCCCOC(C)C)c3ccccc3n2)c1	inconclusive: 25.1 µM [inhibitor, partial curve, poor fit]
COc1ccc2nc(NS(=O)(=O)c3ccc(Cl)cc3)c(NCc3ccc4c(c3)OCO4)nc2c1	inconclusive: 14.1 µM [inhibitor, partial curve, poor fit]
CCC(CC)CN1CC2(CCN(C(=O)c3cnc(NC)nc3)CC2)OC1=O	inconclusive: 28.2 µM [inhibitor, partial curve, poor fit]

Structure (SMILES)	Potency
CC(C)c1ccc(-c2nonc2NC(=O)c2cc(=O)c3cc(Cl)ccc3o2)cc1	inactive
c1ccc(CN(Cc2ccccc2)c2ncnc3c2nnn3Cc2ccccc2)cc1	inconclusive: 31.6 µM [inhibitor, partial curve, poor fit]
COc1cccc(CNC(=O)[C@@H]2C[C@@H](O)CN2C2CCN(C(=O)c3cnccn3)CC2)c1	inactive
Cn1nc(-c2nncn2CC2CC2)c2c1CCN(C(=O)c1n[nH]c(=O)c3ccccc13)C2	inconclusive: 25.1 µM [inhibitor, partial curve]
Cc1ccc(-c2cn3c(n2)N(C(=O)C2CCCO2)CCC3)cc1 (configuration not stated)	inactive
COc1ccc(C(=O)NC2CCN(C(=O)c3cc4c(=O)[nH]c(C)cn4n3)CC2)cc1	inconclusive: 28.2 µM [inhibitor, single point]
Cc1ccc(C(=O)N2CCC(N3Cc4cnc(C)n4C3=O)CC2)cc1	inconclusive: 28.2 µM [inhibitor, partial curve, poor fit]
Cc1noc(C)c1CN1CCNc2cc(-c3ccccc3)ncc2C1	inconclusive: 31.6 µM [inhibitor, single point]
CCN1C(=O)C2(CCN(S(=O)(=O)c3ccc(Cl)c(C)c3)CC2)c2ccccc21	inactive
c1ccc(-c2nc3ccncc3[nH]2)cc1	inconclusive: 35.5 µM [inhibitor, single point]
CC[C@H]1CN(C(=O)Nc2ccccc2)CC[C@H]1CC(=O)NCc1ccccc1	inactive
CCOc1ccccc1C(=O)NC1(C(F)(F)F)C(=O)Nc2c1c(=O)[nH]c(=O)n2Cc1ccccc1 (configuration not stated)	inactive
COc1cc(C2CC(=O)N(Cc3cccc(F)c3)c3ccccc3S2)cc(OC)c1OC (configuration not stated)	inconclusive: 1 µM [inhibitor, partial curve, poor fit]
Cc1oc2cc(OCC(=O)NC3CC3)ccc2c(=O)c1-c1ccc(Cl)cc1	inactive
Cc1ccc(COc2ccc(C=O)cc2)cc1	inconclusive: 25.1 µM [inhibitor, partial curve, poor fit]
CN1CCC(CNC(=O)Nc2csc3ccccc23)CC1	inconclusive: 35.5 µM [inhibitor, partial curve, poor fit]
OC[C@@H](O)CNc1nccc(C2(c3ccccc3Cl)CCNCC2)n1	inactive
CCNc1c(NC(=O)Nc2ccccc2C)c(=O)oc2ccccc12	inconclusive: 39.8 µM [inhibitor, single point]
Cc1nn(-c2ccc(F)cc2)c(C)c1[C@@H]1C=C[C@@H](NC(=O)CC(C)(C)CC(=O)O)C1	inconclusive: 20 µM [inhibitor, partial curve, poor fit]
COc1ccc(C(=O)n2nc(N)c3cc4ccc(C)cc4nc32)cc1OC	inconclusive: 11.2 µM [inhibitor, partial curve, poor fit]
Cc1cccc(NC(=O)Cn2nc(-c3ccco3)ccc2=O)c1C	inconclusive: 31.6 µM [inhibitor, partial curve, poor fit]
